This note sets out measurements from PMC12820563.

The list shows a part of the results. The list includes weakly bound sequences.

For this experiment, the target named is T1, MBP-FoxP3dN (UniProt Q99JB6).
T1 sequence: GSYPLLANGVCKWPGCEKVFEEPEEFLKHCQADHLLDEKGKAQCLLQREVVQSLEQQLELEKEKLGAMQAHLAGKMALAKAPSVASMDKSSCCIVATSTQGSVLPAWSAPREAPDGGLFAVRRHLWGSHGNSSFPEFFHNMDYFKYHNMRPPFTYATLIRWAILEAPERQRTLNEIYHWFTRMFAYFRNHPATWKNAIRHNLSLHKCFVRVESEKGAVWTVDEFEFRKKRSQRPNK
The experiment is described as follows: PD-seq (MBP pull-down with sequencing). As to conditions: 20 mM Tris-HCl pH 7.5, 100 mM NaCl, 1.5 mM MgCl2, 0.4 uM protein, 0.1 uM dsDNA library, 30 min, room temperature, amylose pull-down; high values mean tight binding; double strand, one strand shown.
“GATGATTGTTCTCCCAGCTGATGAATTGAGGGTGTCGAGTAAACAAATTTTCCTAATCTTTCTGTTCAAGCGCCATCTAC”: the binding signal (RPM ratio (pull-down/input)) was 0.748.
In the case of “GATGATTGTTCTCCCAGCTGATGAATTTAAAATTTCGAGTAAACAAATTTTCCTAATCTTTCTGTTCAAGCGCCATCTAC” it was 0.21; in that of “GATGATTGTTCTCCCAGCTGATGAATTTATACATTCGAGTAAACAAATTTTCCTAATCTTTCTGTTCAAGCGCCATCTAC”, 1.09.
In the case of “GATGATTGTTCTCCCAGCTGATGAATTAACAAGGTCGAGTAAACAAATTTTCCTAATCTTTCTGTTCAAGCGCCATCTAC” it was 0.261.
In the case of “GATGATTGTTCTCCCAGCTGATGAATTGCCCGTGTCGAGTAAACAAATTTTCCTAATCTTTCTGTTCAAGCGCCATCTAC” it was 0.563; in that of “GATGATTGTTCTCCCAGCTGATGAATTGCGATTCTCGAGTAAACAAATTTTCCTAATCTTTCTGTTCAAGCGCCATCTAC”, 1.41.
For the sequence “GATGATTGTTCTCCCAGCTGATGAATTCTGGTGCTCGAGTAAACAAATTTTCCTAATCTTTCTGTTCAAGCGCCATCTAC”, the binding signal (RPM ratio (pull-down/input)) was determined as 0.534.
In the case of “GATGATTGTTCTCCCAGCTGATGAATTTATACTTTCGAGTAAACAAATTTTCCTAATCTTTCTGTTCAAGCGCCATCTAC” it was 0.774; in that of “GATGATTGTTCTCCCAGCTGATGAATTAAGGCCCTCGAGTAAACAAATTTTCCTAATCTTTCTGTTCAAGCGCCATCTAC”, 0.605.
In the case of “GATGATTGTTCTCCCAGCTGATGAATTGATTCTTTCGAGTAAACAAATTTTCCTAATCTTTCTGTTCAAGCGCCATCTAC” it was 0.421; in that of “GATGATTGTTCTCCCAGCTGATGAATTCATTCAGTCGAGTAAACAAATTTTCCTAATCTTTCTGTTCAAGCGCCATCTAC”, 0.257; in that of “GATGATTGTTCTCCCAGCTGATGAATTGATGGTATCGAGTAAACAAATTTTCCTAATCTTTCTGTTCAAGCGCCATCTAC”, 1.03.
Regarding “GATGATTGTTCTCCCAGCTGATGAATTTTGCGCCTCGAGTAAACAAATTTTCCTAATCTTTCTGTTCAAGCGCCATCTAC”, the binding signal (RPM ratio (pull-down/input)) amounted to 2.67.
For the sequence “GATGATTGTTCTCCCAGCTGATGAATTAGTACGGTCGAGTAAACAAATTTTCCTAATCTTTCTGTTCAAGCGCCATCTAC”, the binding signal (RPM ratio (pull-down/input)) is 0.434.
For “GATGATTGTTCTCCCAGCTGATGAATTTCGGGCTTCGAGTAAACAAATTTTCCTAATCTTTCTGTTCAAGCGCCATCTAC”, the binding signal (RPM ratio (pull-down/input)) was 0.333.
In the case of “GATGATTGTTCTCCCAGCTGATGAATTTATACCGTCGAGTAAACAAATTTTCCTAATCTTTCTGTTCAAGCGCCATCTAC”, the binding signal (RPM ratio (pull-down/input)) is 0.687.
On to “GATGATTGTTCTCCCAGCTGATGAATTGGAAAGGTCGAGTAAACAAATTTTCCTAATCTTTCTGTTCAAGCGCCATCTAC”, for which the binding signal (RPM ratio (pull-down/input)) is 0.154.
Consider “GATGATTGTTCTCCCAGCTGATGAATTCGGGTGATCGAGTAAACAAATTTTCCTAATCTTTCTGTTCAAGCGCCATCTAC”, for which the binding signal (RPM ratio (pull-down/input)) was 0.446.
With “GATGATTGTTCTCCCAGCTGATGAATTAGGAAGCTCGAGTAAACAAATTTTCCTAATCTTTCTGTTCAAGCGCCATCTAC”, the binding signal (RPM ratio (pull-down/input)) was 0.237.
In the case of “GATGATTGTTCTCCCAGCTGATGAATTAGACACTTCGAGTAAACAAATTTTCCTAATCTTTCTGTTCAAGCGCCATCTAC”, the binding signal (RPM ratio (pull-down/input)) worked out at 0.562.
Regarding “GATGATTGTTCTCCCAGCTGATGAATTCTGCATTTCGAGTAAACAAATTTTCCTAATCTTTCTGTTCAAGCGCCATCTAC”, the binding signal (RPM ratio (pull-down/input)) came out at 6.51.
Turning to “GATGATTGTTCTCCCAGCTGATGAATTCGAGCAGTCGAGTAAACAAATTTTCCTAATCTTTCTGTTCAAGCGCCATCTAC”, the binding signal (RPM ratio (pull-down/input)) was 0.326.
Take “GATGATTGTTCTCCCAGCTGATGAATTTCGCTTGTCGAGTAAACAAATTTTCCTAATCTTTCTGTTCAAGCGCCATCTAC”: the binding signal (RPM ratio (pull-down/input)) stood at 3.29.
As for “GATGATTGTTCTCCCAGCTGATGAATTTCGCACATCGAGTAAACAAATTTTCCTAATCTTTCTGTTCAAGCGCCATCTAC”, the binding signal (RPM ratio (pull-down/input)) came to 1.14.
As for “GATGATTGTTCTCCCAGCTGATGAATTTAGGCCATCGAGTAAACAAATTTTCCTAATCTTTCTGTTCAAGCGCCATCTAC”, the binding signal (RPM ratio (pull-down/input)) was 1.45.
As for “GATGATTGTTCTCCCAGCTGATGAATTGTCCTTCTCGAGTAAACAAATTTTCCTAATCTTTCTGTTCAAGCGCCATCTAC”, the binding signal (RPM ratio (pull-down/input)) was 0.388.
To “GATGATTGTTCTCCCAGCTGATGAATTACAACAGTCGAGTAAACAAATTTTCCTAATCTTTCTGTTCAAGCGCCATCTAC” belongs 1.1.
In the case of “GATGATTGTTCTCCCAGCTGATGAATTAAAAACATCGAGTAAACAAATTTTCCTAATCTTTCTGTTCAAGCGCCATCTAC”, the binding signal (RPM ratio (pull-down/input)) turned out to be 1.43.
For “GATGATTGTTCTCCCAGCTGATGAATTACTGTAATCGAGTAAACAAATTTTCCTAATCTTTCTGTTCAAGCGCCATCTAC”, the binding signal (RPM ratio (pull-down/input)) came to 0.742.
Regarding “GATGATTGTTCTCCCAGCTGATGAATTCCCTAATTCGAGTAAACAAATTTTCCTAATCTTTCTGTTCAAGCGCCATCTAC”, the binding signal (RPM ratio (pull-down/input)) came to 0.276.
To “GATGATTGTTCTCCCAGCTGATGAATTGCTAATCTCGAGTAAACAAATTTTCCTAATCTTTCTGTTCAAGCGCCATCTAC” belongs 0.638.
For “GATGATTGTTCTCCCAGCTGATGAATTCCACATATCGAGTAAACAAATTTTCCTAATCTTTCTGTTCAAGCGCCATCTAC”, the binding signal (RPM ratio (pull-down/input)) is 0.449.
To “GATGATTGTTCTCCCAGCTGATGAATTGCCTAACTCGAGTAAACAAATTTTCCTAATCTTTCTGTTCAAGCGCCATCTAC” belongs 0.514; to “GATGATTGTTCTCCCAGCTGATGAATTCCGCTCTTCGAGTAAACAAATTTTCCTAATCTTTCTGTTCAAGCGCCATCTAC”, 0.674.
“GATGATTGTTCTCCCAGCTGATGAATTTCGATGCTCGAGTAAACAAATTTTCCTAATCTTTCTGTTCAAGCGCCATCTAC”: the binding signal (RPM ratio (pull-down/input)) was determined as 0.898.
For “GATGATTGTTCTCCCAGCTGATGAATTATGCGTATCGAGTAAACAAATTTTCCTAATCTTTCTGTTCAAGCGCCATCTAC”, the binding signal (RPM ratio (pull-down/input)) turned out to be 2.74.
On to “GATGATTGTTCTCCCAGCTGATGAATTGCACACATCGAGTAAACAAATTTTCCTAATCTTTCTGTTCAAGCGCCATCTAC”, for which the binding signal (RPM ratio (pull-down/input)) was 1.05.
Take “GATGATTGTTCTCCCAGCTGATGAATTAGCTACGTCGAGTAAACAAATTTTCCTAATCTTTCTGTTCAAGCGCCATCTAC”: the binding signal (RPM ratio (pull-down/input)) is 0.458.
In the case of “GATGATTGTTCTCCCAGCTGATGAATTACTGCTCTCGAGTAAACAAATTTTCCTAATCTTTCTGTTCAAGCGCCATCTAC”, the binding signal (RPM ratio (pull-down/input)) amounted to 0.405.
To “GATGATTGTTCTCCCAGCTGATGAATTACCGATGTCGAGTAAACAAATTTTCCTAATCTTTCTGTTCAAGCGCCATCTAC” belongs 0.442.
